Residue numbers refer to the chain shown, from its start. Some of the results follow.
T1: RBFOX1 RRM RbFoxmut (Fox-RRM*) (Homo sapiens, UniProt Q9NWB1 109-208, R118D;E147R;N151S;E152T)
T1 sequence: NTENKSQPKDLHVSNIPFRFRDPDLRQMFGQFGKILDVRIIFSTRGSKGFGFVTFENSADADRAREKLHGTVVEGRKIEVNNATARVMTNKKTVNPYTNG

B1: CCCGCAA (DNA:RNA)
RNA: GGGAGACCGGAAUUCAGAUUGUCCCCCGCAAUUAAAUCCCGUCGUAGCCACCA
DNA 1: CAATCTGAATTCCGGTCTCCC
DNA 2: TGGTGGCTACGACGGGATT
B2: GUGAAAC (DNA:RNA)
RNA: B1 RNA with C25G, C26U, C27G, G28A, C29A, A31C
DNA 1: CAATCTGAATTCCGGTCTCCC
DNA 2: TGGTGGCTACGACGGGATT
B3: UCUGAGA (DNA:RNA)
RNA: B1 RNA with C25U, C27U, C29A, A30G
DNA 1: CAATCTGAATTCCGGTCTCCC
DNA 2: TGGTGGCTACGACGGGATT
B4: CUGCCCU (DNA:RNA)
RNA: B1 RNA with C26U, C27G, G28C, A30C, A31U
DNA 1: CAATCTGAATTCCGGTCTCCC
DNA 2: TGGTGGCTACGACGGGATT
B5: CGCACUG (DNA:RNA)
RNA: B1 RNA with C26G, G28A, A30U, A31G
DNA 1: CAATCTGAATTCCGGTCTCCC
DNA 2: TGGTGGCTACGACGGGATT
B6: GCACUCU (DNA:RNA)
RNA: B1 RNA with C25G, C27A, G28C, C29U, A30C, A31U
DNA 1: CAATCTGAATTCCGGTCTCCC
DNA 2: TGGTGGCTACGACGGGATT
B7: AUGUAAG (DNA:RNA)
RNA: B1 RNA with C25A, C26U, C27G, G28U, C29A, A31G
DNA 1: CAATCTGAATTCCGGTCTCCC
DNA 2: TGGTGGCTACGACGGGATT
B8: GUUCGUG (DNA:RNA)
RNA: GGGAGACCGGAAUUCAGAUUGUCCGUUCGUGUUAAAUCCCGUCGUAGCCACCA
DNA 1: CAATCTGAATTCCGGTCTCCC
DNA 2: TGGTGGCTACGACGGGATT
B9: CUCUGUU (DNA:RNA)
RNA: B8 RNA with G25C, U27C, C28U, G31U
DNA 1: CAATCTGAATTCCGGTCTCCC
DNA 2: TGGTGGCTACGACGGGATT
B10: GGUUGAG (DNA:RNA)
RNA: B8 RNA with U26G, C28U, U30A
DNA 1: CAATCTGAATTCCGGTCTCCC
DNA 2: TGGTGGCTACGACGGGATT
B11: CAGAGGC (DNA:RNA)
RNA: B1 RNA with C26A, C27G, G28A, C29G, A30G, A31C
DNA 1: CAATCTGAATTCCGGTCTCCC
DNA 2: TGGTGGCTACGACGGGATT
B12: UGGUCCG (DNA:RNA)
RNA: B1 RNA with C25U, C26G, C27G, G28U, A30C, A31G
DNA 1: CAATCTGAATTCCGGTCTCCC
DNA 2: TGGTGGCTACGACGGGATT
B13: CCAGUCC (DNA:RNA)
RNA: B1 RNA with C27A, C29U, A30C, A31C
DNA 1: CAATCTGAATTCCGGTCTCCC
DNA 2: TGGTGGCTACGACGGGATT
B14: CAAUUGC (DNA:RNA)
RNA: B1 RNA with C26A, C27A, G28U, C29U, A30G, A31C
DNA 1: CAATCTGAATTCCGGTCTCCC
DNA 2: TGGTGGCTACGACGGGATT
B15: CUUGCUU (DNA:RNA)
RNA: B1 RNA with C26U, C27U, A30U, A31U
DNA 1: CAATCTGAATTCCGGTCTCCC
DNA 2: TGGTGGCTACGACGGGATT
B16: GGUGACC (DNA:RNA)
RNA: B8 RNA with U26G, C28G, G29A, U30C, G31C
DNA 1: CAATCTGAATTCCGGTCTCCC
DNA 2: TGGTGGCTACGACGGGATT
B17: GCCCAAC (DNA:RNA)
RNA: B1 RNA with C25G, G28C, C29A, A31C
DNA 1: CAATCTGAATTCCGGTCTCCC
DNA 2: TGGTGGCTACGACGGGATT
B18: UCUCUGG (DNA:RNA)
RNA: B8 RNA with G25U, U26C, G29U, U30G
DNA 1: CAATCTGAATTCCGGTCTCCC
DNA 2: TGGTGGCTACGACGGGATT
B19: UGGUAAC (DNA:RNA)
RNA: B1 RNA with C25U, C26G, C27G, G28U, C29A, A31C
DNA 1: CAATCTGAATTCCGGTCTCCC
DNA 2: TGGTGGCTACGACGGGATT
B20: UAAUUAC (DNA:RNA)
RNA: B1 RNA with C25U, C26A, C27A, G28U, C29U, A31C
DNA 1: CAATCTGAATTCCGGTCTCCC
DNA 2: TGGTGGCTACGACGGGATT
B21: ACUCGUC (DNA:RNA)
RNA: B8 RNA with G25A, U26C, G31C
DNA 1: CAATCTGAATTCCGGTCTCCC
DNA 2: TGGTGGCTACGACGGGATT
B22: GCACAUG (DNA:RNA)
RNA: B8 RNA with U26C, U27A, G29A
DNA 1: CAATCTGAATTCCGGTCTCCC
DNA 2: TGGTGGCTACGACGGGATT
B23: CGGGAUG (DNA:RNA)
RNA: B1 RNA with C26G, C27G, C29A, A30U, A31G
DNA 1: CAATCTGAATTCCGGTCTCCC
DNA 2: TGGTGGCTACGACGGGATT
B24: UUUCUGC (DNA:RNA)
RNA: B8 RNA with G25U, G29U, U30G, G31C
DNA 1: CAATCTGAATTCCGGTCTCCC
DNA 2: TGGTGGCTACGACGGGATT
B25: ACACACU (DNA:RNA)
RNA: B1 RNA with C25A, C27A, G28C, C29A, A30C, A31U
DNA 1: CAATCTGAATTCCGGTCTCCC
DNA 2: TGGTGGCTACGACGGGATT
B26: GUUCGCA (DNA:RNA)
RNA: B8 RNA with U30C, G31A
DNA 1: CAATCTGAATTCCGGTCTCCC
DNA 2: TGGTGGCTACGACGGGATT
B27: UAGGUUU (DNA:RNA)
RNA: B1 RNA with C25U, C26A, C27G, C29U, A30U, A31U
DNA 1: CAATCTGAATTCCGGTCTCCC
DNA 2: TGGTGGCTACGACGGGATT
B28: CGGGCUA (DNA:RNA)
RNA: B1 RNA with C26G, C27G, A30U
DNA 1: CAATCTGAATTCCGGTCTCCC
DNA 2: TGGTGGCTACGACGGGATT
B29: CGAAAUG (DNA:RNA)
RNA: B8 RNA with G25C, U26G, U27A, C28A, G29A
DNA 1: CAATCTGAATTCCGGTCTCCC
DNA 2: TGGTGGCTACGACGGGATT
B30: ACACUAG (DNA:RNA)
RNA: B1 RNA with C25A, C27A, G28C, C29U, A31G
DNA 1: CAATCTGAATTCCGGTCTCCC
DNA 2: TGGTGGCTACGACGGGATT
B31: GUGGUAC (DNA:RNA)
RNA: B1 RNA with C25G, C26U, C27G, C29U, A31C
DNA 1: CAATCTGAATTCCGGTCTCCC
DNA 2: TGGTGGCTACGACGGGATT

The binders below were run against T1, RBFOX1 RRM RbFoxmut (Fox-RRM*) (assay: EMSA; HiTS-Eq, 1 nM pool, 10 min; buffer printed only for the single-RNA assays: 10 mM Tris pH 7.5, 150 mM NaCl, 3.4 mM EDTA, 0.001% NP-40, 30 C). Conditions: tags: His6 N-terminal (pET28a); label: 5' 32P.
Summary of the method: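 Purified RbFox RRM, wild type or mutant, was incubated for 10 min in 50 µL with 1 nM of a 5′-radiolabelled RNA pool carrying 7 randomized nucleotides, whose flanks were annealed to DNA oligonucleotides, over a series of increasing protein concentrations. Unbound RNA was resolved on 8% native PAGE, cut out, reverse-transcribed, barcoded by PCR and sequenced on an Illumina HiSeq 2500. Relative association constants were derived from changes in read counts for each RNA species versus the control reaction and normalised to the cognate motif.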

Binder	binding signal
B1	0.105 KA relative to UGCAUGU
B2	0.0782 KA relative to UGCAUGU
B3	0.0725 KA relative to UGCAUGU
B4	0.101 KA relative to UGCAUGU
B5	0.125 KA relative to UGCAUGU
B6	0.0369 KA relative to UGCAUGU
B7	0.159 KA relative to UGCAUGU
B8	0.184 KA relative to UGCAUGU
B9	0.104 KA relative to UGCAUGU
B10	0.171 KA relative to UGCAUGU
B11	0.089 KA relative to UGCAUGU
B12	0.265 KA relative to UGCAUGU
B13	0.0891 KA relative to UGCAUGU
B14	0.121 KA relative to UGCAUGU
B15	0.123 KA relative to UGCAUGU
B16	0.0965 KA relative to UGCAUGU

Binder	binding signal
B17	0.0746 KA relative to UGCAUGU
B18	0.105 KA relative to UGCAUGU
B19	0.0853 KA relative to UGCAUGU
B20	0.101 KA relative to UGCAUGU
B21	0.0961 KA relative to UGCAUGU
B22	0.128 KA relative to UGCAUGU
B23	0.296 KA relative to UGCAUGU
B24	0.0923 KA relative to UGCAUGU
B25	0.0665 KA relative to UGCAUGU
B26	0.157 KA relative to UGCAUGU
B27	0.119 KA relative to UGCAUGU
B28	0.106 KA relative to UGCAUGU
B29	0.101 KA relative to UGCAUGU
B30	0.112 KA relative to UGCAUGU
B31	0.131 KA relative to UGCAUGU
